# The source gives no read counts; variants with many changes may rest on few reads.
# B1: LINE1-mini (parent)
# chain: GGCAGAGCUCAACACAGCGUGGCAAAGUGGCUGUGGCUAGACUGCC
# Variants of: B1
# Test: self-cleavage, relative activity (ratio to wild type); higher = more cleavage; in vitro, sequencing; the parent is a self-cleaving ribozyme
row,Variant,self-cleavage
1,C3G G7C G22U,0.02
2,C3G C8A C13G U28G G29A C37U,1.57
3,C3U A25U G27C U34G G35C G36A U43G,0.1
4,C3G C10U G33A G44A C46A,0.06
5,C3G G35C G44U,0.19
6,C3U A14U G40U,0.04
7,C3G U9G A14U C15G G27U C37A G40A,0
8,C3G G5C A14G,0.09
9,C3G C10U G21U,0.17
10,C3G G5U C18A,0.14
11,C3G A14U G22U G35U,0.1
12,C3U A4G G7U A11C C31A,0.03
13,C3G C15A G36A C37U,0.15
14,C3G A26G A39C,0.08
15,C3U A26G C46A,0.29
16,C3G G29U U38G,0.24
17,C3G G29U U38C,0.15
18,C3U A11U G22U A39U,0.08
19,C3G U9A G22A C46G,1.42
20,C3U C10U A14G G21U G35U G40A,0.06
21,C3G A26G C45G,0.17
22,C3G G7A A11U G29U G40U,0.04
23,C3G A26G G33A,0.02
24,C3G C8A A12U,0.18

row,Variant,self-cleavage
1,C3G C37A A39G,0.41
2,C3U A14U A24U G29U G40A,0.05
3,C3U A11G A24U U32C U43A G44U,0.02
4,C3U C10A A12U C37G G40C C46U,0.01
5,C3U A26U G40U,0.02
6,C3U A6G G17A C18U G19U U20C U43A,0.02
7,C3U C13U A26G,0.1
8,C3U C8U A26C G40U,0.18
9,C3G U28C C37A,0.01
10,C3G C15A U28C G33A G35C,0.07
11,C3G A16G C18G G19A G33A U34G A39U,0.02
12,C3U A6C A14G U43A C45G,0.09
13,C3G A16C U20C,0.04
14,C3G G5U C15U G19U G36A,0.09
15,C3G G17A G29C C37A A39U G40C,0.11
16,C3G C13A C15A G22U A41U,0.14
17,C3U C10A G36U C37A A41C,0.02
18,C3G C23U A25U U28A G35C U38A,0.04
19,C3G G21C C42U,0.12
20,C3G G19A G21U,0.06
21,C3G C15A G27A G40U,0.02
22,C3G G5A C13U G22C,0.63
23,C3U A6G A11C C13U G21U U28C G40A U43G,0
24,C3U A12C C46A,0.01

row,Variant,self-cleavage
1,C3U A11C G22U G27U U38C,0.02
2,C3G G27C G40U,0.06
3,C3G G30A U38A,2.34
4,C3G A25U G44A,0.55
5,C3G C8G G33U,0.06
6,C3G C13U C15G,0.03
7,C3G A16U G19C G21A C23G C45U,0.06
8,C3U A26G C37G G44A,0.02
9,C3U C8G U20A,0.13
10,C3G G5U U20C C45G,0.12
11,C3U C13G G21U G27U G33U U38C,0.06
12,C3G C23G U34C,0.07
13,C3U A12C A14U,0.02
14,C3U A16C U20G G22U C23U U38A C46G,0.08
15,C3G C13A A14C C15U U32C,0.11
16,C3U A6G C15A,0.02
17,C3G C8A C15A U28A,0.13
18,C3U A16G G22C A26G,0.02
19,C3U A6G U9G U28A A41U,0.03
20,C3G A14C G29C G30A U32C,0.04
21,C3G U32C G35U G36C,0.04
22,C3U C13A A24G C37A,0.14
23,C3U A26U C42U,0.06
24,C3U A6G C10U A16C,0

row,Variant,self-cleavage
1,C3U C10U G22A,0.1
2,C3U A11G A14U U43C,0
3,C3G G5U C10A,0.04
4,C3G A14G C42U,0.05
5,C3G A14C A16U G17A,0.03
6,C3G C18A G19A G22C G29C,0.06
7,C3U C8U A41G C46A,0.56
8,C3U C8G G19A G30C,0.02
9,C3U C10G G40C,0.02
10,C3G G22C C45G,0.1
11,C3G G5C G35A G36U C45G,0.03
12,C3U A4U A16G G17U U34G A41G,0.12
13,C3G A24U G30U C46A,0.1
14,C3G U9C G27U G36U C37A,0.01
15,C3G U20A U28G C46U,0.12
16,C3G G19A G21C G22A G29A,0.16
17,C3U A6U G21U G30U A39U,0.72
18,C3U A12U U20C G30A,0.03
19,C3G G27U G40U,0.04
20,C3U A25G A26U G30C C45U,0.15
21,C3U C8U A11U G17U G21C G44U,0.02
22,C3U C10A A14C G21A G36U,0.01
23,C3U C10A U28A,0.04
24,C3G C18A C42A G44C,0.09

row,Variant,self-cleavage
1,C3U C8G G33U G40A C45U,0.17
2,C3U C8U G19C U20G,0.06
3,C3G G36C A41G C46U,0.01
4,C3G A16U G19C A25G G40C,0
5,C3G C10A C18G G29U G40U,0.02
6,C3G G22U A26G G29U G33U G36U A39G C45A,0.08
7,C3U C8G C10A C23G G33C C42U,0.02
8,C3G C8U C18A U32C C45A,0.17
9,C3G A24C G27U,0.05
10,C3G A24C G27A,0.46
11,C3U A41U U43G,0.09
12,C3U A12C C18A C37G,0.03
13,C3G C15U C46A,0.35
14,C3G U9A C15U G27A,0.44
15,C3G G21U G29A G30A,0.29
16,C3U A4C A24C U34A C42A,0.07
17,C3U A6G A11U C15G,0.01
18,C3G C23A C45G,0.22
19,C3G C8U G17U U43A,0.27
20,C3G A12G U32C,0.17
21,C3G G5U G40A,0.08
22,C3G G7U C13U A14G G19U U34G,0.16
23,C3G G7U G30U,0.25
24,C3G C8U A14G A26C U38C C42A,0.03

row,Variant,self-cleavage
1,C3G C18G G22A,0.1
2,C3U C10G U20G,0.02
3,C3G G7C U9A A14U G17U A39C,0.03
4,C3U A11U C31U C37A C42A,0.01
5,C3G G5A U9C A11U A16C G27C G33A,0.01
6,C3U A26C G30C C46A,0.26
7,C3U A4G G29U U43C C46U,0.3
8,C3U C8U C13A G35U,0.53
9,C3G C8U C13A C18A,1.19
10,C3U C13A G21A G44U,0.17
11,C3U C13U C18A G27C,0.05
12,C3G U20G A24C C42A,0.04
13,C3G G33C G40C,0.12
14,C3G G29A U38G,0.03
15,C3U A25U A26U,0.6
16,C3U C13A C18U C46A,0.1
17,C3G C13U C18G U38A,0.06
18,C3U A14C G21U C42G G44C,0.01
19,C3G G7U A24C U38C,0.05
20,C3U C10G A39C G40A,0.02
21,C3G A14C A16C,0.01
22,C3U C10A G44C,0.02
23,C3U C13U G17U G27U G35U,0.16
24,C3G C8A C46U,0.47

row,Variant,self-cleavage
1,C3U A6C U20A,0.51
2,C3U A4C C37U G44U,0.09
3,C3G C13A U34G C37U,0.03
4,C3G G21U C23A U28G,0.27
5,C3U C8A G19U A24C G33C,0.43
6,C3G C15A U20A G30U,0.08
7,C3G G7C C8G G17U G40U C46G,0.06
8,C3U A11C C15G G21A A24U G30A,0.01
9,C3G C10U C46G,0.16
10,C3G G19C G30U C46U,0.13
11,C3U A4U C23U C37U,0.08
12,C3U A16U A26C C31U,0.03
13,C3G C18U G27U U34G,0.03
14,C3U C8A G27C,0.8
15,C3G G19U C42A,0.09
16,C3G G19U C23A U34A,0.3
17,C3U C13A A16U G21A C37U,0.77
18,C3G C18U A25G U32C,0.04
19,C3G G5A C10U G33U C42A U43A,0.03
20,C3U A16G G19A A24U U34G,0.02
21,C3U A24U A41C,0.07
22,C3G C18G U28A,0.34
23,C3G G7C U9G G21C G22C G30U C46G,0.01
